Data taken from PMC4336329 (PLoS ONE, 2015).
About 14,000 (4.5%) of roughly 310,000 compounds showed an effect of 50% or more. The effect is printed as a negative number. The list shows a part of the results.

Each molecule was assayed against human ether-à-go-go-related gene (hERG) potassium channel (human, UniProt Q12809) (assay: primary screen, population patch clamp on CHO cells stably expressing hERG).
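Also: peak tail current of the secondary pulse compared with the same well before compound.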

human ether-à-go-go-related gene (hERG) potassium channel, sequence (Q12809 whole entry, looked up): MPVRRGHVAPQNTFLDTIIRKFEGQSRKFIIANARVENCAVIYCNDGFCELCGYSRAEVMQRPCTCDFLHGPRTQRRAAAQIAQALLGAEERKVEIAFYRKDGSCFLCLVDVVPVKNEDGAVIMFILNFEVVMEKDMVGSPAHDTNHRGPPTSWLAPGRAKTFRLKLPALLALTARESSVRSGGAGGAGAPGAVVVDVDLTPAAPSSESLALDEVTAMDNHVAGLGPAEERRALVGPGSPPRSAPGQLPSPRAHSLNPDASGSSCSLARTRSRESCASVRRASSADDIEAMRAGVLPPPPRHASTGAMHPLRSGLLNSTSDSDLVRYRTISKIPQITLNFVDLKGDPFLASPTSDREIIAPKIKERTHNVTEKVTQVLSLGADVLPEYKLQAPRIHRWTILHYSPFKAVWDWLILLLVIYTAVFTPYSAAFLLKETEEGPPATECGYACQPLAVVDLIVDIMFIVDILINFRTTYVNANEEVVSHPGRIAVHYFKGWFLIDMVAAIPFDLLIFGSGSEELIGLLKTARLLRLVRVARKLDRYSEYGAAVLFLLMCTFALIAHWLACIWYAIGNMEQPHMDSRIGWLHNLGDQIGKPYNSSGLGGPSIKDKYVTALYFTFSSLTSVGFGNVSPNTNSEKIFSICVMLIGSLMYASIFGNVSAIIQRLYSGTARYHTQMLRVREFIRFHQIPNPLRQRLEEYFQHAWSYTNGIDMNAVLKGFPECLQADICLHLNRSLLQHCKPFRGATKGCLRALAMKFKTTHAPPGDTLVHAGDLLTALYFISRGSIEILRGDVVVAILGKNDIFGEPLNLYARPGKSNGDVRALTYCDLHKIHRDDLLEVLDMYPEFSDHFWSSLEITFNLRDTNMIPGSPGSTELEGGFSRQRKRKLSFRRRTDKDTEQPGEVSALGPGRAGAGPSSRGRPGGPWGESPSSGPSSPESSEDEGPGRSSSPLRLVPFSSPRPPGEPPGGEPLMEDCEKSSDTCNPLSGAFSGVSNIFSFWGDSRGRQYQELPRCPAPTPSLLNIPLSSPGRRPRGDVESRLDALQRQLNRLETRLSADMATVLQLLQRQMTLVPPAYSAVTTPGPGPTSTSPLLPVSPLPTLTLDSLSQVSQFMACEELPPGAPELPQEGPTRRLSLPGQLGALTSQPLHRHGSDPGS

| Compound | hERG current change (%, negative = inhibition) at 10uM |
| --- | --- |
| Cc1n[nH]c(=O)nc1NCC1CCCO1 (stereo not shown) | -20.8% |
| COc1ccc(-c2nn(-c3ccccc3)cc2/C=N/NC(=O)c2ccc3c(c2)OCO3)cc1 | 4.83% |
| Cc1ccc(NC(=O)CC2S/C(=N/N=C3\CCCc4ccccc43)NC2=O)cc1 (stereo not shown) | 8.91% |
| NNC(=O)CCC(=O)Nc1ccccc1 | 4.03% |
| COc1ccc(C(=O)Nc2cc(C)nn2-c2nc3ccccc3[nH]2)c(OC)c1 | -5.95% |
| COc1cc(C2Nc3cccc4cccc(c34)N2)ccc1OC(C)=O | 11.2% |
| O=C(CN(CCO)c1ccccc1)Nc1ccc(Cl)c(S(=O)(=O)N2CCOCC2)c1 | -24.8% |
| COc1cccc2c(=O)n(CC(=O)Nc3ccc(F)cc3F)ccc12 | -0.258% |
| O=Cc1cccn1-c1c(C(=O)O)cnn1-c1ccccc1 | 38.5% |
| O=C(NNC(=S)NC(=O)c1cccnc1)c1ccc(F)cc1 | -9.85% |
| CSc1ccc(OC2CCCCC2NS(=O)(=O)c2ccc(Cl)cc2)cc1 (stereo not shown) | 0.762% |
| Cc1cccc(C(=O)OC2CCOC2=O)c1O (stereo not shown) | 14.2% |
| COc1ccc(C)cc1S(=O)(=O)NCCc1ccccc1 | -28.3% |
| O=C(CN1C(=O)NC2(CCCCC2)C1=O)Nc1cccc(Cl)c1Cl | -13.6% |
| Cc1ccc[n+](CC(=O)Nc2ccc(N(C)C)cc2)c1.[Cl-] | 17.3% |
| CCN(c1ccccc1)S(=O)(=O)c1cccc(C(=O)NCC(c2cccs2)N(C)C)c1 (stereo not shown) | -48.6% |
| Cc1ccc(Nc2n[nH]c(C)c2[N+](=O)[O-])cc1 | 10.1% |
| Cc1cccc(NS(=O)(=O)c2ccc3c(c2)Cc2cc(S(=O)(=O)Nc4cccc(C)c4C)ccc2-3)c1C | 0.214% |
| COc1ccc(/C=C/C(=O)NC(=S)NCCc2ccc(OC)c(OC)c2)cc1 | 10.6% |
| CN(C)CCCN(C(=O)c1ccco1)c1nc2c(F)cc(F)cc2s1.Cl | -72.2% |
| CC(C)NC(=O)COC(=O)c1ccccc1C(=O)c1ccccc1 | 3.39% |
| COc1ccc(OC)c(NC(=O)C2CCN(c3nc(C)cc(C)n3)CC2)c1 | -18.4% |

| Compound | hERG current change (%, negative = inhibition) at 10uM |
| --- | --- |
| CCSc1nc(-c2cccs2)nc2ccccc12 | 45.1% |
| CC(C)N(C(=O)CSc1nc2ccccc2n1Cc1ccccc1F)C(C)C | -19.1% |
| COc1ccc(OC)c(NC(=O)NC2CCCCCCC2)c1 | 5.1% |
| COc1ccc(NC(=O)/C(=C\c2ccco2)NC(=O)c2ccco2)cc1 | -11.1% |
| NC(=S)N/N=C/c1ccc(-c2ccc(SC(F)F)cc2)o1 | -9.29% |
| CC(C)Oc1ccc(CCNC(=O)C2CCC(=O)N(Cc3cccc(F)c3)C2)cc1 (stereo not shown) | -14.1% |
| Cc1nn(C)c(C)c1CN(C)C(=O)c1nn2c(c1Br)NC(c1cccs1)CC2C(F)(F)F (stereo not shown) | -20.7% |
| Cc1cc(Cl)ccc1OCC(=O)OC(C)C(=O)NC(N)=O (stereo not shown) | -11% |
| C[N+]1(C)C2CC[C@H]1CC(OC(=O)C(CO)c1ccccc1)C2.O=[N+]([O-])O (stereo partly shown) | -4.69% |
| COc1ccc(N2C(=O)C3CCCN3C2c2cccs2)cc1 (stereo not shown) | 1.87% |
| Nc1cc(=O)[nH]c(SCC(=O)NCC2CCCO2)n1 (stereo not shown) | 1.45% |
| Cc1cccc(C)c1OCc1cc(C(=O)N2CC3C[C@@H]4CC2C[C@H](C3)C4)no1 | -2.85% |
| COc1cc(CN2CCN(C(=O)CC(C)C)CC2)cc(OC)c1OC | -23% |
| Cc1cccc(C(=O)NNC(=O)c2ccc(Br)cc2)c1 | 4.62% |
| O=C(Nc1cnccn1)c1cccnc1 | 3.24% |
| CC(C)(C)C1CCc2sc(-c3nnc(CCl)o3)cc2C1 (stereo not shown) | 10.8% |
| COc1ccccc1N1CCN(C(=O)c2cc(=O)c3c(C)cc(C)cc3o2)CC1 | 22.5% |
| Cc1ccn2cc(CSc3ccccc3N)nc2c1 | -29.1% |
| CC(C)[C@@H](C(=O)NCC1CCC(C(=O)O)CC1)n1nnc2ccccc2c1=O (stereo partly shown) | 19.1% |
| CCOC(=O)c1ccc(NC(=O)COc2ccc(S(=O)(=O)NC(C)C)cc2)cc1 | 4.8% |
| CCCCCc1c(C)nc(N2CCN(Cc3ccc4c(c3)OCO4)CC2)[nH]c1=O | 11.7% |
| CNCc1c(OCc2ccccc2)ccc2ccccc12.Cl | -34.1% |

| Compound | hERG current change (%, negative = inhibition) at 10uM |
| --- | --- |
| CCN(CC)C(=O)CSc1nc2cccnc2n1-c1ccccc1OC | -0.945% |
| Cc1ccccc1-c1nc(CS(=O)CC(=O)NCc2ccccc2)c(C)o1 (stereo not shown) | -21% |
| COc1ccc(N2CCN(C(=O)CCc3ccccc3OC)CC2)cc1 | -17% |
| COc1ccccc1OCC(=O)Nc1ccc2c(c1)C(=O)N(CC1CCCO1)C2=O (stereo not shown) | -19.3% |
| Cc1nnc(SCc2ccon2)n1-c1ccccc1 | 15.6% |
| CCCn1c(O)c(N=NC(=O)CNC(=O)c2ccncc2)c2ccccc21 | -12.6% |
| O=C(COC(=O)CN1C(=O)NC2(CCCC2)C1=O)Nc1ccccc1C(F)(F)F | 7.69% |
| Br.Cn1ccnc1SCC(=O)c1ccc(O)cc1 | 17.1% |
| Cc1ccc(C)c(NC(=O)CN(C)C(=O)c2cc(-c3cccs3)nn2-c2ccccc2)c1 | -11% |
| CSc1ccccc1C(=O)NCc1ccc2c(c1)OCO2 | -17.2% |
| CNC(=O)COC(=O)C1CCN(S(=O)(=O)c2ccc3c(c2)OCCO3)CC1 | 11.7% |
| CCOc1ccc(Cl)cc1/C=N/NC(N)=O | -22.2% |
| C=CCN1c2ccc(Br)cc2C(=O)CS1(=O)=O | -2.52% |
| O=C(O)C(=O)O.c1ccc(COc2ccc(OCCN3CCCC3)cc2)cc1 | -60.3% |
| CN(C)CCCNC(=O)c1cc(C(=O)C2CCCCC2)c[nH]1 | -3.99% |
| Cc1ccc(NC(=O)COc2cccc3c2OC(C)(C)C3)c(O)c1 | -18.9% |
| CCN(CC)CCNC(=O)Cc1nn(CC)c(=O)c2ccccc12.Cl | -13.3% |
| Cc1ccc(S(=O)(=O)Nc2ccccc2F)cc1C(=O)N1CCN(c2ccccc2O)CC1 | -22.5% |
| CCC(C)[C@H]1CN=C(N)N1CCc1cc(C(F)(F)F)cc(C(F)(F)F)c1 (stereo partly shown) | -10.4% |
| O=C(O)c1ccc(/C=N/Nc2nnnn2-c2ccccc2)cc1 | 14.4% |
| O=C(Nc1ccccc1C(=O)O)/C(=C/c1ccc([N+](=O)[O-])cc1)NC(=O)c1ccc(Br)o1 | 24.4% |
| O=C(CCc1nc2ccccc2s1)NC1CCOC1=O (stereo not shown) | 13.7% |

| Compound | hERG current change (%, negative = inhibition) at 10uM |
| --- | --- |
| C/C(CC(=O)Nc1cc(C)ccn1)=N\NC(=O)c1cccc(C)c1O | 7.55% |
| CCN1C=C(Cc2ccccc2C)C2=C(C1)C(c1ccccc1C)C(C#N)=C(N)O2.CCO (stereo not shown) | 0.285% |
| Cc1ccc(C(=O)NC(=S)NCc2ccccc2)cc1 | 7.15% |
| Cc1nnc(NC(=O)CSc2nc3c(c(=O)n2CCc2ccccc2)SC(C)C3)s1 (stereo not shown) | 14.2% |
| COc1cccc(C(=O)NCC2CCCN(C3CCCCC3)C2)c1OC (stereo not shown) | 6.55% |
| Cc1ccc(S(=O)(=O)Nc2ncnc3sccc23)cc1C | 5.42% |
| COc1ccc(N/N=C(\C#N)C(=N)N2CCOCC2)cc1 | 11.4% |
| O=C(Nc1nccs1)c1cccc(NC(=O)C(F)(F)F)c1 | -5.07% |
| Cc1ccc(C(=O)Nc2cccc(C(F)(F)F)c2)cc1Nc1ncnc2nc[nH]c12 | -60.2% |
| OC[C@@H]1CCCN1Cc1cn(-c2ccccc2)nc1-c1ccc2c(c1)OCO2 | -24.2% |
| Cc1cc(C)c2[nH]c(=O)c(C(c3nnnn3C(C)(C)C)N(Cc3ccco3)CC3CCCO3)cc2c1 (stereo not shown) | 10.2% |
| O=C(CN1CCCC1)N1CCCc2c1c(=O)oc1ccc(OCc3ccccc3)cc21 | -65.6% |
| COc1ccc(S(=O)(=O)N2CCc3ccccc3C2)cc1C(=O)O | 10.2% |
| COc1ccc(-c2nc3ccc(C(=O)N4CCC5(CC4)OCCO5)cc3nc2-c2ccc(OC)cc2)cc1 | -1.35% |
| CCOC(=O)N1CCN(C(=O)CS(=O)(=O)Cc2nc(-c3ccccc3F)oc2C)CC1 | -13.6% |
| Cc1ncoc1C(=O)N1CCCC(C(=O)c2cccc(C(F)(F)F)c2)C1 (stereo not shown) | 1.98% |
| COc1ccc(OC2C(=O)N(Cc3ccc(F)cc3)C2c2cc(OC)c(OC)c(OC)c2)cc1 (stereo not shown) | -20.1% |
| O=C(O)/C=C/C(=O)Nc1ccc(F)cc1F | 9.29% |
| O=C1CCc2cc(S(=O)(=O)NCc3ccc(Cl)cc3)cc3c2N1CC3 | -41% |
| FC(F)(F)c1cccc(Nc2nc(N3CCCC3)nc(N3CCCC3)n2)c1 | 23.7% |
| CCc1ccccc1N(CC(=O)N1CCN(c2ccccc2F)CC1)S(C)(=O)=O | 0.701% |
| O=C1N(c2ccccc2)c2ccccc2C1(Cc1ccncc1)Cc1ccncc1 | -13.5% |
